This is one part of the list. Shown are side measurements of this screen, not its main read-out; they come without a call.
Columns and labels:
Test in all cases: Primary Screen for Target Class Profiling of Small Molecule Inhibitors of Methyltransferases
[1] = molecular target: Glycine N-methyltransferase (Homo sapiens) (UniProt Q14749); settings: purified enzyme, MTase-Glo SAH luminescence; measured here: GNMT inhibition; at 40 µM; stronger effect = lower value
Outline: (§1)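 Each enzyme was reacted with SAM and its substrate, with compounds tested once at 40 uM; SAH formed was read by MTase-Glo luminescence.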

[2] = molecular target: Guanidinoacetate N-methyltransferase (Homo sapiens) (UniProt Q14353); settings: purified enzyme, MTase-Glo SAH luminescence; measured here: GAMT inhibition; at 40 µM; stronger effect = lower value
Outline: as §1

[3] = molecular target: Histamine N-methyltransferase (Homo sapiens) (UniProt P50135); settings: purified enzyme, MTase-Glo SAH luminescence; measured here: HNMT inhibition; at 40 µM; stronger effect = lower value
Outline: as §1

[4] = molecular target: Nicotinamide N-methyltransferase (Homo sapiens) (UniProt P40261); settings: purified enzyme, MTase-Glo SAH luminescence; measured here: NNMT inhibition; at 40 µM; stronger effect = lower value
Outline: as §1

[5] = molecular target: Phenylethanolamine N-methyltransferase (Homo sapiens) (UniProt P11086); settings: purified enzyme, MTase-Glo SAH luminescence; measured here: PNMT inhibition; at 40 µM; stronger effect = lower value
Outline: as §1
% is set by controls: 0 for no effect and ±100 for the full control effect.

Row | SMILES | activity change, negative = inhibition [1] [%] | activity change, negative = inhibition [2] [%] | activity change, negative = inhibition [3] [%] | activity change, negative = inhibition [4] [%] | activity change, negative = inhibition [5] [%]
1 | CCCN1C(=O)c2c(C(=O)NCCN3CCOCC3)ncn2CC1(C)C(=O)NCc1ccc(C)cc1 (stereo not drawn) | 3.67 | 0 | 5.33 | 4.79 | 6.26
2 | CNC(=O)[C@@H](CC(C)C)N1CCC[C@H]1C(=O)N1CCN(C)CC1 | 7.78 | -7.79 | -2.41 | -9.03 | -6.46
3 | CN(C1CCc2nn(CC3CC3)c(=O)n2CC1)S(=O)(=O)c1cccnc1 (stereo not drawn) | 1.45 | 2.94 | 3.01 | -0.457 | 18.4
4 | CC1CCC(NC(=O)C2(c3ccccc3)Cn3c(cc4sccc43)C(=O)N2Cc2ccc(F)cc2)CC1 (stereo not drawn) | 7.21 | 3.38 | 6.98 | 4.05 | -2.4
5 | O=C(O)Cc1c(-c2ccccc2)c2cc(Br)ccc2[nH]c1=O | -13.3 | 3.32 | 2.07 | -2.36 | -0.816
6 | COc1ccc(CN2C(=O)c3c(-n4cccc4)c4cc(F)ccc4n3CC2(C)C(=O)NC2CCCCCC2)cc1 (stereo not drawn) | -17.4 | 3.68 | -5.76 | -24.7 | -4.12
7 | CCOC(=O)c1cc2n(n1)CC(C)(C(=O)NC1CCCCCC1)N(c1cccc(Cl)c1C)C2=O (stereo not drawn) | -0.261 | 3.41 | -4.93 | 1.31 | -0.267
8 | Cc1cccc(N2CCN(S(=O)(=O)c3ccc4c(c3)n(C)c(=O)n4C)CC2C)c1 (stereo not drawn) | -0.342 | 2.71 | 3.17 | 4.79 | -0.909
9 | CN(C)c1ccc(Nc2nc(N)n(C(=O)c3c(F)cccc3F)n2)cc1 | -21.6 | -8.4 | 1.72 | -24.3 | -32
10 | O=C(NCc1ccc(F)cc1)C1=NOC2CN(C(=O)Nc3cccnc3)CC12 (stereo not drawn) | -4.11 | -2.1 | -3.26 | -7.82 | -5.91
11 | CCc1ccc(S(=O)(=O)N2c3ccccc3CC2c2nnc(C3CCOCC3)o2)cc1 (stereo not drawn) | -1.77 | -2.11 | 0.772 | -17.4 | 11.1
12 | CC(C)Oc1ccc(CN2C(=O)c3cc(-c4ccccc4)nn3CC2(C)C(=O)NCc2ccccc2)cc1 (stereo not drawn) | 0.61 | 3.4 | -0.589 | -4.33 | -6.92
13 | COc1ccc(OC)c(N2C(=O)c3cc4occc4n3CC2(C)C(=O)NC2CCCCCC2)c1 (stereo not drawn) | -13.2 | 0 | 4.29 | -5.11 | 0.207
14 | OC[C@H]1O[C@@H](OCCc2ccccc2)[C@H](O)[C@@H](O)[C@@H]1O | 4.63 | 4.4 | 8.49 | -8.42 | 0.74
15 | O=C(COc1cc(O)c2c(=O)cc(-c3ccccc3)oc2c1)c1ccc(F)cc1 | -7.25 | 4.87 | -0.29 | -0.564 | -3.22
16 | Cc1ccc(C#N)c(NCc2cccnc2Oc2cccc(C(F)(F)F)c2)n1 | -2.94 | -8.3 | -2.34 | -12.6 | -3.63
17 | O=C1CC2(CCN(Cc3ccc(C(F)(F)F)cc3)CC2)Oc2ccccc21 | -8.69 | -3.13 | -2.77 | -11.6 | -29.2
18 | COC(=O)C1=CO[C@@H](O[C@@H]2O[C@H](CO)[C@@H](O)[C@H](O)[C@H]2O)/C(=C\CO)[C@@H]1CC(=O)OCCc1ccc(O)cc1 | 0 | 0.95 | 1.13 | -12.7 | 2.47

Row | SMILES | activity change, negative = inhibition [1] [%] | activity change, negative = inhibition [2] [%] | activity change, negative = inhibition [3] [%] | activity change, negative = inhibition [4] [%] | activity change, negative = inhibition [5] [%]
19 | Cc1ccc(Cn2c(=O)c3ccc(C(=O)NC(C)C)cc3n3c(=O)n(Cc4ccccc4)nc23)cc1 | 8.65 | 1.69 | 12.6 | 10.9 | 10.9
20 | CCOC(=O)c1ccc(NC2CCCCC2)c(N)c1 | 2.92 | 3.96 | 2.08 | -21.3 | -4.08
21 | CC(=O)O[C@H]1C[C@@H]2CC[C@@H]3[C@H](CC[C@@]4(C)[C@H]3C[C@H]([N+]3(C)CCCCC3)[C@@H]4OC(C)=O)[C@@]2(C)C[C@@H]1[N+]1(C)CCCCC1 | 10 | 13.7 | -7.17 | -2.07 | 0.799
22 | C[C@@H]1O[C@@H](O[C@H]2[C@H](O)[C@@H](O[C@@H]3O[C@H](CO)[C@@H](O)[C@H](O[C@@H]4O[C@H](CO)[C@@H](O)[C@H](O)[C@H]4O)[C@H]3O)[C@H](O[C@H]3CC[C@@]4(C)C(=CC[C@@H]5C4CC[C@@]4(C)C5C[C@@H]5OC6(CC[C@@](C)(CO[C@@H]7O[C@H](CO)[C@@H](O)[C@H](O)[C@H]7O)O6)[C@@H](C)[C@@H]54)C3)O[C@@H]2CO)[C@H](O)[C@H](O)[C@H]1OC1OC(CO)C(O)C(O)C1O (stereo partly drawn) | 8.24 | 6.97 | 11.4 | -2.08 | 6.83
23 | COc1ccccc1CN1C(=O)c2cc3occc3n2CC1(C)C(=O)NC1CCCCCCC1 (stereo not drawn) | 1.06 | 0.551 | 7.07 | 0.331 | 3.05
24 | CC1CCC(NC(=O)C2(C)Cn3c(cc4occc43)C(=O)N2Cc2ccccc2)CC1 (stereo not drawn) | -5.09 | 3.26 | 1.96 | -11.9 | 0.332
25 | COCC1CN(C)CC12CCN(C(=O)CCc1ccc(OC)cc1)CC2 (stereo not drawn) | -2.33 | -4.4 | -7.63 | -4.07 | -14.2
26 | O=C1c2c(O)ccc(O)c2C(=O)c2c(NCCNCCO)ccc(NCCNCCO)c21 | -40.9 | -34 | -44.7 | -32.4 | -29.1
27 | COc1cccc(CNC(=O)[C@@]23CCCC[C@H]2N(CCc2ccccc2)C(=O)CC3)c1 | -1.79 | 1.44 | -1.72 | -3.27 | -3.61
28 | Cc1cc(C)c(/C=C2\C(=O)Nc3ccc(Cl)cc32)[nH]1 |  | -15.4 |  | -23.5 | -3.63
29 | Cc1nnc2n1CCC(NC(=O)CCCc1nc3ccccc3s1)CC2 (stereo not drawn) | -1.38 | 1.35 | -0.008 | -2.32 | -1.29
30 | CCCCN1C(=O)c2cc3ccccc3n2CC1(C)C(=O)NC1CCCC1 (stereo not drawn) | 0.413 | 0 | 1.89 | 6.22 | -1.55
31 | CNC(=O)[C@@H]1C[C@H](n2cc(CNS(=O)(=O)c3cc(C)ccc3F)nn2)CN1 | -7.26 | -10.7 | -4.47 | -10.1 | -0.746
32 | CC1CCC(NC(=O)C2(C)Cn3c(cc4occc43)C(=O)N2CCc2ccc(Cl)cc2)CC1 (stereo not drawn) | -5.76 | 0 | 0.49 | -5.13 | -4.42
33 | O=S(=O)(c1ccccc1)c1nnn2c1nc(NC1CC1)c1cc(Cl)ccc12 | -9.46 | 3.32 | -0.253 | -4.15 | -6.17
34 | COc1ccc(-c2nc3c(C)cccc3cc2CN2CCC(O)CC2)cc1OC | -9.39 | -7.63 | -11.5 | -15.5 | -2.48
35 | O=C(CC1CCCN(c2cn[nH]c(=O)c2)C1)N1CCCCC1 (stereo not drawn) | -0.096 | -1.99 | 1.38 | -2.04 | 2.06

From PubChem BioAssay AID1745853 (National Center for Advancing Translational Sciences (NCATS), 2022)
